{"source": "PubChem BioAssay AID463173", "about": "(ICCB-Longwood Screening Facility, Harvard Medical School, 2010)", "note": "The campaign covered roughly 52,000 compounds. About 1,700 (3.3%) were called active. Cut-off read from the data, not from the text of the source: active = survival mostly below about 52% (no sharp cut-off); inactive = mostly above about 56%. The list shows a part of the results.", "data": [{"tested_on": "Wild type", "test": "growth inhibition of S. aureus wild type versus tarO mutant, primary screen, teichoic acid synthesis inhibitors, RN4220, OD600 (AID 463173)", "conditions": "S. aureus RN4220 wild type/DeltatarO growth, OD600, 18 h, active compounds read low, screened at 18.75 µg/mL (by protocol)", "values": [{"molecule": "CCc1nn(CC(=O)NC(C)CCc2ccccc2)c(=O)c2cc3c(OC)cccc3n12", "note": "(configuration not stated)", "survival": "inactive: 96%"}, {"molecule": "CCOC(=O)Cn1c(=O)n(C2CCCCC2)c2nc(-c3ccc(C(C)C)cc3)nc(C(N)=O)c21", "survival": "inactive: 55%"}, {"molecule": "Cc1ccc2c(CN3CCN(C(=O)c4ccc(Br)cc4)CC3)cc(=O)oc2c1", "survival": "inactive: 84%"}, {"molecule": "Cc1ccc(S(=O)(=O)N2CCc3cc(C(=O)Nc4c(F)cccc4F)ccc32)cc1", "survival": "inactive: 86%"}, {"molecule": "CCC(C(=O)N1CCN(c2cc(C)ccc2C)CC1)n1nc(C)n2c(cc3occc32)c1=O", "note": "(configuration not stated)", "survival": "inactive: 53%"}, {"molecule": "Cc1nc(NCC2CCCO2)c2c3c(sc2n1)CCC3", "note": "(configuration not stated)", "survival": "inactive: 110%"}, {"molecule": "COc1ccccc1NC(=O)CSC1=Nc2ccccc2C2=NC(CC(=O)NCc3ccccc3)C(=O)N12", "note": "(configuration not stated)", "survival": "inactive: 70%"}, {"molecule": "CCOc1ccc(NC(=O)C2CCCN(c3nnc(C)c4c(C)n(-c5ccccc5)nc34)C2)cc1", "note": "(configuration not stated)", "survival": "inactive: 115%"}, {"molecule": "Cn1c(=O)c2c(nc(N3CCOCC3)n2Cc2ccc(Br)cc2)n(C)c1=O", "survival": "inactive: 71%"}, {"molecule": "CCC(=O)N(c1nnc(-c2cc(OC)c(OC)c(OC)c2)s1)C1CCCC1", "survival": "inactive: 116%"}, {"molecule": "COc1ccc(NC(=O)C2CCN(c3ccc(Sc4ccc(C)cc4)nn3)CC2)c(OC)c1", "survival": "inactive: 70%"}, {"molecule": "Cc1ccc(CN2CCN(C3CCNCC3)C(=O)C2=O)cc1", "survival": "inactive: 105%"}, {"molecule": "CC(=N/O)/C(=N\\O)c1ccc(C)o1", "survival": "inactive: 100%"}, {"molecule": "O=C(CSc1ccc(-c2ccccn2)nn1)Nc1ccc(F)cc1F", "survival": "inactive: 82%"}, {"molecule": "Cc1ccc(CN2CCN(C3CCN(C(=O)Nc4ccc(C)cc4Cl)CC3)C(=O)C2=O)cc1", "survival": "inactive: 95%"}, {"molecule": "CC(=O)N1CCc2cc(CNC(=O)c3ccccc3Br)ccc21", "survival": "inactive: 85%"}, {"molecule": "CCCCNS(=O)(=O)c1ccc(C)c(-c2nnc3c4ccccc4c(C)nn23)c1", "survival": "inactive: 79%"}, {"molecule": "CNS(=O)(=O)c1cn(CC(=O)Nc2ccc(C(C)=O)cc2)cc1S(=O)(=O)NC", "survival": "inactive: 73%"}, {"molecule": "CC(=O)N1CCc2cc(S(=O)(=O)NC(Cc3ccccc3)C(=O)NCc3ccc(C)cc3)ccc21", "note": "(configuration not stated)", "survival": "inactive: 81%"}, {"molecule": "O=C(NCc1cccs1)C1CCN(C(=O)N2CCOc3ccc(Cl)cc32)CC1", "survival": "inactive: 85%"}, {"molecule": "O=C(Nc1ccc(Br)cc1)c1ccc(F)c(S(=O)(=O)N2CCc3ccccc32)c1", "survival": "inactive: 81%"}, {"molecule": "CCC(=O)N1CCN(c2ccc(N)cc2)CC1", "survival": "inactive: 105%"}, {"molecule": "COc1ccc(CCNC(=O)C2CCN(S(=O)(=O)c3c(C)noc3/C=C/c3ccc(C)cc3)CC2)cc1OC", "survival": "inactive: 80%"}, {"molecule": "Cc1ccc(S(=O)(=O)C(CNC(=O)C(=O)NCc2ccccc2C)c2cccs2)cc1", "note": "(configuration not stated)", "survival": "inactive: 94%"}, {"molecule": "CN1CCN(CC(=O)Nc2ccc(C(=O)NCC3CCCO3)cc2)CC1", "note": "(configuration not stated)", "survival": "inactive: 108%"}, {"molecule": "O=C(OC(C(=O)NCc1ccc2c(c1)OCO2)c1ccncc1)c1ccc(Cl)nc1", "note": "(configuration not stated)", "survival": "inactive: 106%"}, {"molecule": "CCOC(=O)c1ccc(NC(=O)CCn2ccc(C)n2)cc1", "survival": "inactive: 110%"}, {"molecule": "Cc1cc(C)c(Cn2c(C3CC(=O)N(c4ccc(F)cc4)C3)nc3ccccc32)c(C)c1", "note": "(configuration not stated)", "survival": "inactive: 86%"}, {"molecule": "CC(C)C(=O)NS(=O)(=O)c1ccc(NC(=O)c2ccco2)cc1", "survival": "inactive: 112%"}, {"molecule": "CC(C)OC(=O)c1c(-c2ccccc2)c(-c2ccccc2)nn(C)c1=O", "survival": "inactive: 112%"}, {"molecule": "COc1cccc(NC(=O)CSc2nc(=O)n(Cc3ccncc3)c3c2CCC3)c1", "survival": "inactive: 68%"}, {"molecule": "C=CC#CC(C)(C)c1ccc(O)c(C)c1", "survival": "inactive: 113%"}, {"molecule": "CC1=C(C(=O)OC2C3CC4CC(C3)CC2C4)C(CC(=O)O)C(=O)N1", "note": "(configuration not stated)", "survival": "inactive: 110%"}, {"molecule": "CCNc1nc2c(c(=O)n(Cc3ccccc3)c(=O)n2C)n1Cc1ccccc1", "survival": "inactive: 125%"}, {"molecule": "CCOC(=O)N1CCC2(CC1)OC(=O)C(C)=C2C(=O)NCc1cccc(F)c1", "survival": "inactive: 45%"}, {"molecule": "Cc1cc(C)c2c(NCc3ccc(N4CCCCC4)cc3)n[nH]c2n1", "survival": "inactive: 115%"}, {"molecule": "CCCN1CCN(c2ncnc3sc(C(=O)Nc4c(C)cc(C)cc4C)c(C)c23)CC1", "survival": "inactive: 75%"}, {"molecule": "CCCc1nc2sc3c(c2c(=O)n1N)CCCC3", "survival": "inactive: 93%"}, {"molecule": "Cc1cccc(NC(=O)CN2C(=O)c3cccc4cccc2c34)c1C", "survival": "inactive: 61%"}, {"molecule": "CCc1ccc(C(=O)c2cn(CC(=O)Nc3ccc(OC)cc3)c3cc4c(cc3c2=O)OCO4)cc1", "survival": "inactive: 72%"}, {"molecule": "O=C(CSc1nnc2c3c4c(sc3ncn12)CCCC4)Nc1nccs1", "survival": "inactive: 108%"}, {"molecule": "O=C(Cn1nnc2c(cnn2-c2ccccc2)c1=O)N(c1ccccc1)c1ccccc1", "survival": "inactive: 108%"}, {"molecule": "CCC1CN(S(=O)(=O)c2cc(-c3onc(C)c3C)ccc2C)c2cc(Cl)ccc2O1", "note": "(configuration not stated)", "survival": "inactive: 81%"}, {"molecule": "NC(=O)C1(N2CCCCC2)CCN(C(=O)Nc2ccc(F)cc2F)CC1", "survival": "inactive: 115%"}, {"molecule": "NS(=O)(=O)c1ccc(NC(=O)C(=O)Nc2ccc3nc4n(c(=O)c3c2)CCCCC4)cc1", "survival": "inactive: 89%"}, {"molecule": "Cc1cc(NC(=O)C2CCN(S(=O)(=O)c3cccc4nsnc34)CC2)ccc1Br", "survival": "inactive: 79%"}, {"molecule": "Cc1ccc(Cn2ccnc2SCC(=O)Nc2nc3ccccc3s2)cc1", "survival": "inactive: 125%"}, {"molecule": "Cc1cccc(-n2ncc3c(N4CCCC(C)C4)ncnc32)c1", "note": "(configuration not stated)", "survival": "inactive: 77%"}, {"molecule": "C#CCOc1ccc(C2CC(=O)Nc3c2c(C)nn3-c2nc(C)cc(C)n2)cc1", "note": "(configuration not stated)", "survival": "inactive: 79%"}, {"molecule": "CCN=c1sc(C(=O)NCCc2ccccc2)cc(=O)n1CC", "survival": "inactive: 105%"}, {"molecule": "Cc1cccc(C(=O)N2c3nc(-c4ccco4)nn3C3(CCCCC3)[C@@H]3CCCC[C@@H]32)c1", "survival": "inactive: 76%"}, {"molecule": "O=c1ccc(-c2ccccc2)nn1Cc1ccc(F)cc1Cl", "survival": "inactive: 81%"}, {"molecule": "CCOc1ccc2nc(N3CCCC(C(=O)Nc4cc(Cl)c(OC)cc4OC)C3)sc2c1", "note": "(configuration not stated)", "survival": "inactive: 106%"}, {"molecule": "Cc1c(C(=O)Nc2cccc(-c3nc4ccccc4s3)c2)oc2ccccc12", "survival": "inactive: 98%"}, {"molecule": "COc1ccccc1NC(=O)N1CCN2C(=O)c3ccccc3C12c1ccccc1", "note": "(configuration not stated)", "survival": "inactive: 111%"}, {"molecule": "CCCCCCSc1nnc2c(n1)OC(C)Nc1ccc(Br)cc1-2", "note": "(configuration not stated)", "survival": "inactive: 66%"}, {"molecule": "CCOC(=O)c1ccccc1NC(=O)COc1ccccc1-c1nnc(-c2ccccc2)o1", "survival": "inactive: 22%"}]}]}
